According to patent US12145987B2, “Method for depleting cytotoxic T cells using an anti-LAG-3 antibody composition” (Daiichi Sankyo Company, Limited, priority 2017, dated 2024):

T1: human LAG-3 expressed on 293T-lacZ cells (Homo sapiens, UniProt P18627)
T1 construct: An expression plasmid of the full-length human LAG-3 was introduced into the 293T cells stably expressing β-galactosidase; expressed in transfected cells; host or cells: 293T-lacZ cells (293T stably expressing β-galactosidase), transient transfection
T1 sequence (P18627 23-525): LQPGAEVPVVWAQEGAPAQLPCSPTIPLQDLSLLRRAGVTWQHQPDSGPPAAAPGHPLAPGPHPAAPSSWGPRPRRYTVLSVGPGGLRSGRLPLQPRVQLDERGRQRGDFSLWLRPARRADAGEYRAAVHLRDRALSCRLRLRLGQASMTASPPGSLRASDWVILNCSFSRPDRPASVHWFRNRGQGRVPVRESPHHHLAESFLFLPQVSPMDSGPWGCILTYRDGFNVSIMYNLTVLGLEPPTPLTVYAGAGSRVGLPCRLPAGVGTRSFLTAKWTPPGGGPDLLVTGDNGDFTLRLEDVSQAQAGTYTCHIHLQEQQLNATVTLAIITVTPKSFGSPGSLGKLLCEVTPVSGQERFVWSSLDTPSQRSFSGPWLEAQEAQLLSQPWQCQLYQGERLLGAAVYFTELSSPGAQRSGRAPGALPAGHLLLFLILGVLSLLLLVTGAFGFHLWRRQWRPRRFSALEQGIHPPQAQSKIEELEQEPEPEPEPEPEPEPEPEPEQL


Tests used:
[1] = target: T1, human LAG-3 expressed on 293T-lacZ cells; experiment: Binding activity to 293T-lacZ cells expressing human LAG-3 by flow cytometry; conditions: mean fluorescence intensity
Method: (§1) The expression plasmid pcDNA3.1-hLAG-3 of human LAG-3 was introduced into the 293T-lacZ cells (described in Example 1)-5-1), using Lipofectamine 2000 (manufactured by Invitrogen Corp.), and the cells were cultured for 1 day and thereafter used for flow cytometry. The flow cytometry was performed according to the method described in Example 1)-4, except that an Anti-Human IgG PE conjugate (manufactured by Jackson ImmunoResearch Laboratories, Inc.) diluted 200-fold with a FACS buffer was used as the secondary antibody.
as §1, with “human LAG-3-expression” for “expression”, “pcDNA3.1/hLAG-3” for “pcDNA3.1-hLAG-3 of human LAG-3”, “but” for “except that”
The binding of the humanized anti-human LAG-3 antibody hLA212_H4/L2 to human LAG-3-expressing 293T-lacZ cells was investigated by flow cytometry according to the method described in Example 7)-2.

[2] = test system: 293T-lacZ cells expressing human LAG-3; experiment: In vitro ADCC assay, human PBMC effector cells, β-galactosidase release; format: cell-based; conditions: target 293T-lacZ/hLAG-3 cells, effector human PBMCs, percentage of cells lysed
Method: 293FT cells (Invitrogen Corp.) were transfected with pLenti6/V5-GW/lacZ, and ViraPower™ Packaging Mix (Invitrogen Corp.) according to the accompanying protocols to prepare a recombinant lentivirus to express the β-galactosidase gene. 293T cells were infected by the obtained recombinant lentivirus according to the protocol of ViraPower Lentiviral Expression Systems (Invitrogen Corp). Virus-infected cells were selected using 10 μg/mL blasticidin (Invitrogen Corp.) to obtain a line stably expressing β-galactosidase. An expression plasmid of the full-length human LAG-3 was introduced into the 293T cells stably expressing β-galactosidase (hereinafter, referred to as 293T-lacZ) using Lipofectamine 2000 (manufactured by Invitrogen Corp.), and the cells were cultured for 1 day and then dissociated and recovered using TrypLExpress (manufactured by Invitrogen Corp). The cells were washed twice with phenol red-free RPMI1640 containing 5% FBS (hereinafter, referred to as a “medium for ADCC”). The number of live cells was counted by the trypan blue dye exclusion test. The cells were resuspended to 1×10^5 cells/ml in a medium for ADCC and used as target cells.
PBMCs were separated from human peripheral blood by Ficoll centrifugation, and a suspension adjusted to a live cell density of 1.2×10^6 cells/mL in a medium for ADCC was used as effector cells.
The ADCC activity of the purified rat anti-human LAG-3 antibodies rLA204, rLA212, rLA225, rLA869, and rLA1264 was investigated by the following method. To a 96-well U-bottom microplate containing 50 μL/well of the antibody solution, was added 50 μL/well of the target cells (which will be hereinafter referred to as 293T-lacZ/hLAG-3 cells) of Example 1)-5-1, followed by standing at 4° C. for 30 minutes. Then, 75 μL/well of effector cells prepared as in Example 1)-5-2 (which was however suspended to 2×10^6 cells/mL) was added thereto, followed by centrifugation at room temperature at 1200 rpm for 5 minutes, and thereafter the cells were cultured overnight under conditions of 37° C. and 5% CO2. On the next day, 50 μl of the supernatant was recovered into a black plate (manufactured by Corning Inc). A solution of β-Glo assay system (manufactured by Promega Corp.) was added thereto at 50 μl/well. The luminescence intensity was measured using a plate reader (ENVISION; manufactured by PerkinElmer, Inc). The percentage of cells lysed by ADCC activity was calculated according to the following formula. Percentage of cells lysed (%)=(A−B)/(C−B)×100 • A: Count of each sample well • B: Average of spontaneous release (wells without antibody added) counts (n=3)
When adding the antibody, 50 μL of a medium for ADCC was added thereto. Except for that, the same operation as in the sample well was performed.
C: Average of maximum release (wells containing target cells lysed with a surfactant) counts (n=3)
When adding the antibody and adding the effector cells, 50 μL and 75 μL of a medium for ADCC were added thereto respectively. For the assay, 175 μl of the β-Glo assay system solution was added to each well containing the target cells and mixed therewith. A 100 μl aliquot thereof was added to a black plate to carry out the assay.
The ADCC activity of the humanized anti-human LAG-3 antibodies (hLA212) was investigated by the method described in Example 2)-2.
The in vitro ADCC activity of the humanized anti-human LAG-3 antibody hLA212_H4/L2 was evaluated by the method described in Example 7)-2.

Row | Molecule | binding activity to 293T-lacZ cells expressing human LAG-3 [1] | ADCC activity on cells expressing human LAG-3 [2]
1 | hLA212_H3/L5: humanized antibody; heavy chain positions 20 to 470 of SEQ ID No: 30, light chain positions 21 to 234 of SEQ ID No: 40 (antibody) heavy: EVQLVESGGGLVQPGGSLRLSCAASGFTYRSYVMAWVRQAPGKGLEWVASISTGGGNTYYRDSVKGRFTISRDNAKNTLYLQMDSLRAEDTAVYYCAEDMSNSGYGLFDYWGQGTLVTVSSASTKGPSVFPLAPSSKSTSGGTAALGCLVKDYFPEPVTVSWNSGALTSGVHTFPAVLQSSGLYSLSSVVTVPSSSLGTQTYICNVNHKPSNTKVDKRV[left out - human IgG1 Fc] light: NIQMTQSPSSMSISVGDRVTMTCKAGQNVDNNIAWYQKKPGQSPKLLIYYASNRNTGVPDRFSGGGYGTDFTLTISSVQPEDAAFYYCQRISNSPYTFGQGTKLELKRTVAAPSVFIFPPSDEQLKSGTASVVCLLNNFYPREAKVQWKVDNALQSGNSQESVTEQDSKDSTYSLSSTLTLSKADYEKHKVYACEVTHQGLSSPVTKSFNRGEC | concentration-dependent binding activity to the 293T-lacZ cells expressing human LAG-3, comparable to the human chimeric anti-LAG-3 antibody cLA212 | concentration-dependent ADCC activity against the 293T-lacZ cells expressing human LAG-3, almost comparable to the human chimeric anti-LAG-3 antibody cLA212
2 | hLA212_H2/L2: humanized antibody; heavy chain positions 20 to 470 of SEQ ID No: 28, light chain positions 21 to 234 of SEQ ID No: 34 (antibody) heavy: EVQLVESGGGLVQPGGSLRLSCAASGFTYRSYVMAWVRQAPGKGLEWVGSISTGGGNTYYRDSVKGRFTISRDNAKNTLYLQMNSLRAEDTAVYYCAEDMSNSGYGLFDYWGQGTLVTVSSASTKGPSVFPLAPSSKSTSGGTAALGCLVKDYFPEPVTVSWNSGALTSGVHTFPAVLQSSGLYSLSSVVTVPSSSLGTQTYICNVNHKPSNTKVDKRV[left out - human IgG1 Fc] light: DIQMTQSPSSLSASVGDRVTITCKAGQNVDNNIAWYQQKPGQSPKLLIYYASNRNTGVPSRFSGSGYGTDFTLTISSLQPEDFATYYCQRISNSPYTFGQGTKVEIKRTVAAPSVFIFPPSDEQLKSGTASVVCLLNNFYPREAKVQWKVDNALQSGNSQESVTEQDSKDSTYSLSSTLTLSKADYEKHKVYACEVTHQGLSSPVTKSFNRGEC | concentration-dependent binding activity to the 293T-lacZ cells expressing human LAG-3, comparable to the human chimeric anti-LAG-3 antibody cLA212 | concentration-dependent ADCC activity against the 293T-lacZ cells expressing human LAG-3, almost comparable to the human chimeric anti-LAG-3 antibody cLA212
3 | hLA212_H2/L1: humanized antibody; heavy chain positions 20 to 470 of SEQ ID No: 28, light chain positions 21 to 234 of SEQ ID No: 32 (antibody) heavy: EVQLVESGGGLVQPGGSLRLSCAASGFTYRSYVMAWVRQAPGKGLEWVGSISTGGGNTYYRDSVKGRFTISRDNAKNTLYLQMNSLRAEDTAVYYCAEDMSNSGYGLFDYWGQGTLVTVSSASTKGPSVFPLAPSSKSTSGGTAALGCLVKDYFPEPVTVSWNSGALTSGVHTFPAVLQSSGLYSLSSVVTVPSSSLGTQTYICNVNHKPSNTKVDKRV[left out - human IgG1 Fc] light: DIQMTQSPSSLSASVGDRVTITCKAGQNVDNNIAWYQQKPGQAPKLLIYYASNRNTGVPSRFSGSGSGTDFTLTISSLQPEDFATYYCQRISNSPYTFGQGTKVEIKRTVAAPSVFIFPPSDEQLKSGTASVVCLLNNFYPREAKVQWKVDNALQSGNSQESVTEQDSKDSTYSLSSTLTLSKADYEKHKVYACEVTHQGLSSPVTKSFNRGEC | concentration-dependent binding activity to the 293T-lacZ cells expressing human LAG-3, comparable to the human chimeric anti-LAG-3 antibody cLA212 | concentration-dependent ADCC activity against the 293T-lacZ cells expressing human LAG-3, almost comparable to the human chimeric anti-LAG-3 antibody cLA212
4 | hLA212_H2/L3: humanized antibody; heavy chain positions 20 to 470 of SEQ ID No: 28, light chain positions 21 to 234 of SEQ ID No: 36 (antibody) heavy: EVQLVESGGGLVQPGGSLRLSCAASGFTYRSYVMAWVRQAPGKGLEWVGSISTGGGNTYYRDSVKGRFTISRDNAKNTLYLQMNSLRAEDTAVYYCAEDMSNSGYGLFDYWGQGTLVTVSSASTKGPSVFPLAPSSKSTSGGTAALGCLVKDYFPEPVTVSWNSGALTSGVHTFPAVLQSSGLYSLSSVVTVPSSSLGTQTYICNVNHKPSNTKVDKRV[left out - human IgG1 Fc] light: NIQMTQSPSSLSASVGDRVTITCKAGQNVDNNIAWYQKKPGQSPKLLIYYASNRNTGVPDRFSGGGYGTDFTLTISSLQPEDFAFYYCQRISNSPYTFGQGTKVEIKRTVAAPSVFIFPPSDEQLKSGTASVVCLLNNFYPREAKVQWKVDNALQSGNSQESVTEQDSKDSTYSLSSTLTLSKADYEKHKVYACEVTHQGLSSPVTKSFNRGEC | concentration-dependent binding activity to the 293T-lacZ cells expressing human LAG-3, comparable to the human chimeric anti-LAG-3 antibody cLA212 | concentration-dependent ADCC activity against the 293T-lacZ cells expressing human LAG-3, almost comparable to the human chimeric anti-LAG-3 antibody cLA212
